Screen size: about 310,000 compounds; about 14,000 (4.5%) showed an effect of 50% or more. The effect is printed as a negative number. The list shows a part of the results.
Target: human ether-à-go-go-related gene (hERG) potassium channel (human, UniProt Q12809)
Assay: primary screen, population patch clamp on CHO cells stably expressing hERG
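Note: peak tail current of the secondary pulse compared with the same well before compound.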

Chain of human ether-à-go-go-related gene (hERG) potassium channel (Q12809 whole entry, looked up): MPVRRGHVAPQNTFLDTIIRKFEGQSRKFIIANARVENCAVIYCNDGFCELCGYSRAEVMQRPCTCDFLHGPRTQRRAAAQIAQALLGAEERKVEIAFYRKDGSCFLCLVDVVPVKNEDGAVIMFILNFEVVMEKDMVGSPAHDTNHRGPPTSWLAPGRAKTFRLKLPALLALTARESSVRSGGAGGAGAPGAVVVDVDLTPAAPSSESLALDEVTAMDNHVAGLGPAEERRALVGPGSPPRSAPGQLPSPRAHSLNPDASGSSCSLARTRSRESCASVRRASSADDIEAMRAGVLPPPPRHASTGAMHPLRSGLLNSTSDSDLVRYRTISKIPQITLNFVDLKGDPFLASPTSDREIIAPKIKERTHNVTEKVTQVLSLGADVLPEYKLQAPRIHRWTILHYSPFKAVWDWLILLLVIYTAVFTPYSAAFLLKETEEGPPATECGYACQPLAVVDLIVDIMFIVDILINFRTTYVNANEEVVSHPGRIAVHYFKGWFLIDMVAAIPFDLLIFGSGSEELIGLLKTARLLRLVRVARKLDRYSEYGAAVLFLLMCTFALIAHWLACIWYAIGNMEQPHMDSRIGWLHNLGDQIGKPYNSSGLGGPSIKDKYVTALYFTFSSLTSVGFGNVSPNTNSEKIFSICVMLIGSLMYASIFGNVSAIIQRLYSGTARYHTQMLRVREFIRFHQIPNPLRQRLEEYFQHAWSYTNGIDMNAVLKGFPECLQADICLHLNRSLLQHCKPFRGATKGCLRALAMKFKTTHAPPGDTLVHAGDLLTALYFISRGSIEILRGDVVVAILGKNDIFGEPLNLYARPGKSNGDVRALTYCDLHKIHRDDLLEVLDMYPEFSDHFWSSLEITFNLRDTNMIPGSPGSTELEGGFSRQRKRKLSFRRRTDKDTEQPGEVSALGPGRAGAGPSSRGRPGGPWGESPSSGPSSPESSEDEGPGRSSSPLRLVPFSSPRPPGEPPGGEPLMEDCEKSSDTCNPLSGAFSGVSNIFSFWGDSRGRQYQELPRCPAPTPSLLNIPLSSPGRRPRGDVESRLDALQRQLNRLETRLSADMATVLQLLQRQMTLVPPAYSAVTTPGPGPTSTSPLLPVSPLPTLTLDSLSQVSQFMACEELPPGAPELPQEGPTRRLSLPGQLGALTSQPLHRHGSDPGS

SMILES | hERG current change (%, negative = inhibition) at 10uM [%]
NNP(=O)(CC(=O)c1ccccc1)c1ccccc1 (stereo not drawn) | 16.1
O=C(COC(=O)CCc1nc2ccccc2c(=O)[nH]1)Nc1ccc(Cl)cn1 | 3.9
CC(=O)N1CCc2cc(S(=O)(=O)NCCC(=O)NCCc3ccc(Cl)cc3)ccc21 | -11.3
CC(=O)Nc1sc(C)c(C)c1C(=O)OCC(=O)Nc1cc(S(C)(=O)=O)ccc1Cl | -3.47
CC1CCCC(NC(=O)CCNC(=O)c2ccc(Br)cc2)C1C (stereo not drawn) | -0.231
CCS(=O)(=O)NCC(c1cccnc1)N1CCN(c2ccccc2F)CC1 (stereo not drawn) | -3.19
Cc1cccc(C(=O)N/N=C/c2cc(Br)c(Br)o2)c1 | -6.14
COCCN(CCOC)c1nc(N)c2c(N)nc3c(c2c1C#N)CC(=O)N3Cc1ccc(Cl)cc1 | -17.3
Cc1ccc(S(=O)(=O)[N-]c2nc3ccccc3nc2-n2cc[n+](Cc3ccccc3)c2)cc1 | 11
O=C(Nc1ccc(-c2noc(-c3cccs3)n2)cc1)c1cccnc1 | -3.79
Cc1ccc(/C=N/NC(=O)C(C)Oc2ccccc2[N+](=O)[O-])s1 (stereo not drawn) | -4.11
CC(=O)Oc1ccc(N2C(=O)[C@@H]3[C@H](C2=O)[C@H]2c4ccccc4C=NN2[C@@H]3C(C)=O)cc1 | -18.2
O=C(/C=C/c1ccccc1Cl)NCCN1CCOCC1 | -9.72
CNC(=O)c1c(NC(=O)CCS(=O)(=O)c2ccc(C)cc2)sc2c1CCN(C(=O)OC)C2 | -25.3
CCOC(=O)c1c(NC(=O)C(=O)N/N=C/c2ccc(O)c(OC)c2)sc2c1CCCCC2 | 9.58
Cc1ccc(C)c(S(=O)(=O)N(C)Cc2cccs2)c1 | -18.3
NC(=O)c1ccsc1NC(=O)COC(=O)/C=C/c1ccccc1 | -9.78
Cn1cc(C(=O)N/N=C/C(Br)=C\c2ccccc2)ccc1=O | 4.8
Cc1cc(C(=O)NNC(=S)NCc2ccccc2)cs1 | 22.3
CCOc1cc(C2/C(=C(/O)c3ccc(S(=O)(=O)N4CCCCC4)cc3)C(=O)C(=O)N2CCOC)ccc1O (stereo not drawn) | 17.8
O=C(NCCCN1CCOCC1)c1cc2c(s1)CCC2 | 4.7
COc1cc(C(=O)N/N=C/c2cc([N+](=O)[O-])cs2)cc(OC)c1OC | -8.26

SMILES | hERG current change (%, negative = inhibition) at 10uM [%]
Cc1c(C(=O)Nc2ccc(F)cc2)oc2ccc(S(=O)(=O)N3CCCC3)cc12 | 10.5
COc1ccc(CCN=C(N)NS(=O)(=O)c2ccc(F)cc2)cc1 | -0.981
CCc1noc(C)c1C(=O)OCC(=O)Nc1c(F)cccc1F | 11.5
Cc1ccc(OCCC(=O)OCC(=O)Nc2ccc(C)cc2Cl)cc1 | 15.2
CC(NC(=O)c1ccco1)C12CC3CC(CC(C3)C1)C2 (stereo not drawn) | -50.1
Cc1ccccc1NC(=O)C(=O)Nc1ccccc1C | 17.7
COc1cccc(C(=O)c2c[nH]c(C(=O)NCc3cccs3)c2)c1 | -0.271
COc1ccc(CCNC(=O)CSc2nnc(-c3ccco3)c(-c3ccco3)n2)cc1OC | 5.59
O=C(Nc1ccc(Cl)cc1)N1CC2CC(C1)c1cccc(=O)n1C2 (stereo not drawn) | 4.31
CCCCC(CC)C(=O)Nc1cc(C(=O)NCCC)ccc1N1CCC2(CC1)CC(c1cccc(Br)c1)=NO2 (stereo not drawn) | -7.85
Cn1c(Oc2ccc(Cl)cc2)c(C=O)c2ccccc21 | -3.01
CCc1nnc(NC(=O)CC(=O)Nc2ccccc2C(=O)O)s1 | -5.14
O=C1/C(=C/c2cccc(F)c2)CSc2sccc21 | -19.6
CC(=O)OCC(=O)[C@@]12OC3(CCCC3)O[C@@H]1C[C@H]1[C@@H]3CCC4=CC(=O)C=C[C@]4(C)[C@@]3(F)[C@@H](O)C[C@@]12C | 4.57
CCN1CCN(Cc2nc3ccc([N+](=O)[O-])cc3c(=O)n2-c2ccc(OC)cc2OC)CC1 | -52
CCOC(=O)C1CCN(Cc2cccc(Oc3ccc(Cl)cc3)c2)CC1 | 3.3
Cc1nn(C)c(C)c1CN(C)C(=O)c1cc2nc(-c3ccco3)cc(C(F)(F)F)n2n1 | -6.85
Cc1csc(SCC(=O)Nc2ccccc2[N+](=O)[O-])n1 | 2.69
O=C(Nc1ccccc1C(F)(F)F)c1cc(-c2ccco2)on1 | 9.32
CCOc1ccc(NC(=O)CC(Cc2ccc(Cl)cc2)C(=O)O)cc1 (stereo not drawn) | 2.51
CCc1c(C)sc(NC(=S)N2CCN(C(=O)C3CCCO3)CC2)c1C(=O)OC (stereo not drawn) | -13
O=C(NS(=O)(=O)c1ccccc1Cl)c1ccc[nH]1 | 13.7

SMILES | hERG current change (%, negative = inhibition) at 10uM [%]
COc1ccccc1N1CCN(C(=O)c2ccc(S(=O)(=O)N3CCCC3)cc2)CC1 | -0.519
CC1(C)CC(=O)C2=C(C1)N(Cc1cccnc1)C(=O)C2(NC(=O)c1cccnc1)C(F)(F)F (stereo not drawn) | 18.9
Cc1cc(C(=O)NCc2ccc3c(c2)OCO3)n(-c2ccccc2)n1 | -14.8
CC(Oc1ccc(Br)cc1)C(=O)N(C)CC(=O)Nc1ccc(N2CCOCC2)cc1 (stereo not drawn) | 2.99
COc1cccc(NS(=O)(=O)NC(=O)c2c(C)[nH]c3ccccc23)c1 | 17.9
CCOC(=O)N1CCC(NC(=O)c2cc(S(=O)(=O)N(CC)CC)ccc2F)CC1 | 4.33
CCCOc1ccc(/C=N/Nc2ccccc2[N+](=O)[O-])c(O)c1 | 18.7
CC(C)Cn1c(SCc2nnc(-c3cccs3)o2)nc(O)cc1=O | 10.1
O=C(CSc1nc2ccccc2nc1SCC(=O)N1CCOCC1)N1CCOCC1 | -5.85
CC(=O)/C(N=Nc1cccc(C(F)(F)F)c1)=C(\C)O | 26.1
COc1ccc(CCNC(=O)C2(c3ccccc3)CC2)cc1 | -0.44
Cc1ccc(-c2nc(C(=O)NC3CCCCCC3)no2)cc1 | 2.66
COc1cc(O)sc1C=Nc1ccc(Cl)cc1Cl | 7.62
CCN(CC)S(=O)(=O)c1ccc(N2C(=O)CC2(/C=C/c2ccccc2)C(=O)NC2CCCC2)cc1 (stereo not drawn) | 4.58
O=C(Nc1cccc(Cl)c1)c1nc[nH]c1C(=O)N1CCc2ccccc2C1 | -15.6
CCOC(=O)N1CCOCCOCCN(C(=O)OCC)CCOCC1 | 10.2
Cc1ccc(C)c(-n2nnnc2SCC(=O)NCCC2=CCCCC2)c1 | -7.52
Cc1cccc(C)c1NC(=S)N1CCCN(Cc2ccc(F)cc2)C1 | 12.6
Cc1ccc(C)c(OCC(=O)Nc2nc3ccc([N+](=O)[O-])cc3s2)c1 | -6.92
C=C(C)[C@@H]1CC=C(CN2CCN(Cc3ccccc3)CC2)CC1 | -25.3
CCOC(=O)C1CCCN(C(=O)c2cc(Cl)ccc2Cl)C1 (stereo not drawn) | 2.38
CCn1nc(C(=O)Nc2ccccc2N2CCCC2)c2ccccc2c1=O | -12.7

SMILES | hERG current change (%, negative = inhibition) at 10uM [%]
Cc1oc2ncnc(N)c2c1C | 8.52
Cc1cccc(N2CCN(C(c3ccccc3)c3nnnn3C(C)(C)C)CC2)c1C (stereo not drawn) | 17.7
C=CCc1ccc(OC)c(OC)c1 | 23.8
CCC(=O)Nc1cccc(NC(=O)c2ccccc2Cl)c1 | 0.643
Cc1ccc(S(=O)(=O)NCCC2(C(C)C)CCOC(C)(C)C2)cc1 (stereo not drawn) | -17.9
CC1CN(C(=O)c2cc(S(=O)(=O)N3CCCCC3)ccc2Cl)CC(C)O1 (stereo not drawn) | -4.83
CCN1C(=O)CC2(C[N+]3(C)CCC2CC3)C1=O.[Br-] (stereo not drawn) | 5.23
Cc1noc(C)c1COC(=O)c1cccc(S(=O)(=O)N2CCOCC2)c1 | 4.24
O=S1(=O)[C@H]2C[C@@H]3CC[C@]2(CN1Cc1cccc(F)c1)O3 | 4.83
O=S(=O)(c1ccccc1)N1CCC(n2nnc3cc(F)ccc32)CC1 | -27.7
Cc1ccc(-n2c(N)c(C(=O)N3CCCCC3)sc2=S)cc1 | -16.8
CCOC(=O)C1CCN(C(=O)c2cccnc2Cl)CC1 | 2.15
COc1ccc(S(=O)(=O)Cc2ccc(C(=O)N3CCN(c4cc(C)ccc4C)CC3)o2)cc1 | -8.36
CCC1CCCCN1CCCNC(=O)CNC(=O)c1nn(-c2ccc(OC)cc2)c(=O)c2ccccc12 (stereo not drawn) | -31.9
COc1ccc(C(=O)OCC(=O)NC2CCCC2)cc1OC | 7.67
CCCn1c(=S)[nH]c2cc(C(=O)N3CCc4ccccc43)ccc2c1=O | 17.7
COCc1cc(Sc2ccc(Br)cc2)nc(-c2ccccc2)n1 | 12.7
CC(C)Oc1ccc(CNC(=O)C2CCCN(S(=O)(=O)N3CCOCC3)C2)cc1 (stereo not drawn) | -20.8
Cc1cccc(OCC(=O)O/N=C(\N)c2ccc(Cl)cc2)c1 | 21.6
CCn1c(C)nc2cc(S(=O)(=O)N3CCCC3)ccc21 | 1.8
CN(C(=O)C1CCOC1)c1nnc(-c2cccnc2)s1 (stereo not drawn) | 5.06

From PMC4336329 (PLoS ONE, 2015)
